Test results reported in the RNAGym collection of RNA variant scans (doi:10.1093/nar/gkz1192).
The source gives no read counts; variants with many changes may rest on few reads.

B1: CPEB3 Ribozyme (parent)
chain: UAACAGGGGGCCACAGCAGAAGCGUUCACGUCGCAGCCCCUGUCAGAUUCUGGUGAAUCUGCGAAUUCUGCUGUAUAUCUC

Variants of: B1
Assay: self-cleavage, relative activity (ratio to wild type); higher = more cleavage; in vitro, sequencing
In short: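 Libraries of CPEB3 self-cleaving ribozyme mutants came from rounds of error-prone PCR and carried barcodes, which DNA sequencing matched to variants. In vitro transcription used T7 RNA polymerase at 37°C for 5 hours, with a further 15 min in DNase I before EDTA stopped the reaction; the ribozymes cleaved during both steps. The RNA was reverse transcribed with template switching and sequenced on Illumina. Relative activity is the cleaved/total read fraction of a variant divided by that of the unmutated ribozyme, averaged over three batches with at least 5 reads.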

Variant	self-cleavage
U1C U31C U67C	0.39
U1C U31G A35U U48C U69A	0.16
U1C U31G U41C G73C	0.91
U1C U41A A57G A65G	0.07
U1C U41A G73A A75G	0.08
U1C U41A U43C A56G A57G G61U A75G	0.04
U1C U41A U48C A56G	0.07
U1C U41A U51C	0.35
U1C U41A U60C U74A A75G	0.06
U1C U41C A47G U66A	0.32
U1C U41C A56G U60C	0.29
U1C U41C A56U A75C U78C	0.81
U1C U41C A64U	0.26
U1C U41C U43A U69C	0.21
U1C U41C U49C	0.76
U1C U41C U54C A64U U69C	0.3
U1C U41C U58C U69C	0.28
U1C U41C U60C	0.37
U1C U41C U60C A64G	0.11
U1C U41C U72A U78C	0.83
U1C U41G U54C U58A A75G	0.26

Variant	self-cleavage
U1C U43A G61A	0.6
U1C U43A U58C	0.38
U1C U43A U60C	0.22
U1C U43C A45G G73A A75G	0.42
U1C U43C A45G U48C U51C	0.66
U1C U43C A45G U51C U69A	0.36
U1C U43C A47G A57G	0.24
U1C U43C A56G	0.43
U1C U43C A57G U58C	0.07
U1C U43C A75U	0.28
U1C U43C U51C U66C U69A	0.24
U1C U43C U67C U72A A75G	0.11
U1C U43C U69C	0.11
U1C U43C U69C U74A	0.15
U1C U48C C50A A65G U66C U69C	0.05
U1C U48C U74A	0.85
U1C U49A U54G U80A	0.46
U1C U49C A57G U58C	0.36
U1C U49C U60A	0.12
U1C U51A U54C	1.14
U1C U51A U54C A57U U66C U74C	0.24

Variant	self-cleavage
U1C U51A U58C U69C	0.25
U1C U51C U69C	0.65
U1C U51C U69G	0.61
U1C U51G U74C	1.25
U1C U54A U69C	0.84
U1C U54C U67C U72A	0.18
U1C U54C U72C	0.84
U1C U54C U74A U80C	1.21
U1C U58C A75G U80C	0.15
U1C U58C U67C U72A	0.17
U1C U60A G63A	0.2
U1C U60A U72A	0.18
U1C U66C U74C	0.51
U1C U67C U72A	0.11
U1C U69A U72C	0.35
U1C U69C U76C U78C	0.68
U1C U72C U80C	1.18
U1C U74A A75G	1.03
U1G A2G A15G A35C U49C U60C	0.33
U1G A2G G33A	0.44
U1G A3C A15G A28U A75C	0.57

Variant	self-cleavage
U1G A3G A45G U51C A57G U72A	0.5
U1G A3G G9U U41G	0.5
U1G A3U C40U U43G U66C	0.11
U1G A3U U58C	0.63
U1G A5G A15U C38A A65G U78C	0.22
U1G A5U A20G A47G U67C U72C	1.15
U1G A5U G30U A35G G42U	0.09
U1G A13G A18C C50U U60A	0.13
U1G A13U U25C U26C U66C U72C	0.4
U1G A13U U26C U66C	0.11
U1G A18G A20U A45G U51C G63A U74A	0.59
U1G A18G U48C G55C U74A	0.23
U1G A20G A28G G33A U54C	0.06
U1G A20U G33A	0.3
U1G A20U U41C A45U U49A U54C G73C	0.09
U1G A21G C62U U72C	0.09
U1G A21G G30A U43G	0.05
U1G A21G U25C U26C U48C G52U	0.11
U1G A21G U26C	0.48
U1G A28G A47G U69A C71U	0.12
U1G A28G U43C A56U	0.35
